Publication PMC4336329 (PLoS ONE, 2015)
The campaign covered roughly 310,000 compounds. About 14,000 (4.5%) showed an effect of 50% or more. The effect is printed as a negative number. The list shows a part of the results.

Target: human ether-à-go-go-related gene (hERG) potassium channel (human, UniProt Q12809)
Assay: primary screen, population patch clamp on CHO cells stably expressing hERG
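Note: peak tail current of the secondary pulse compared with the same well before compound.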

Chain of human ether-à-go-go-related gene (hERG) potassium channel (Q12809 whole entry, looked up): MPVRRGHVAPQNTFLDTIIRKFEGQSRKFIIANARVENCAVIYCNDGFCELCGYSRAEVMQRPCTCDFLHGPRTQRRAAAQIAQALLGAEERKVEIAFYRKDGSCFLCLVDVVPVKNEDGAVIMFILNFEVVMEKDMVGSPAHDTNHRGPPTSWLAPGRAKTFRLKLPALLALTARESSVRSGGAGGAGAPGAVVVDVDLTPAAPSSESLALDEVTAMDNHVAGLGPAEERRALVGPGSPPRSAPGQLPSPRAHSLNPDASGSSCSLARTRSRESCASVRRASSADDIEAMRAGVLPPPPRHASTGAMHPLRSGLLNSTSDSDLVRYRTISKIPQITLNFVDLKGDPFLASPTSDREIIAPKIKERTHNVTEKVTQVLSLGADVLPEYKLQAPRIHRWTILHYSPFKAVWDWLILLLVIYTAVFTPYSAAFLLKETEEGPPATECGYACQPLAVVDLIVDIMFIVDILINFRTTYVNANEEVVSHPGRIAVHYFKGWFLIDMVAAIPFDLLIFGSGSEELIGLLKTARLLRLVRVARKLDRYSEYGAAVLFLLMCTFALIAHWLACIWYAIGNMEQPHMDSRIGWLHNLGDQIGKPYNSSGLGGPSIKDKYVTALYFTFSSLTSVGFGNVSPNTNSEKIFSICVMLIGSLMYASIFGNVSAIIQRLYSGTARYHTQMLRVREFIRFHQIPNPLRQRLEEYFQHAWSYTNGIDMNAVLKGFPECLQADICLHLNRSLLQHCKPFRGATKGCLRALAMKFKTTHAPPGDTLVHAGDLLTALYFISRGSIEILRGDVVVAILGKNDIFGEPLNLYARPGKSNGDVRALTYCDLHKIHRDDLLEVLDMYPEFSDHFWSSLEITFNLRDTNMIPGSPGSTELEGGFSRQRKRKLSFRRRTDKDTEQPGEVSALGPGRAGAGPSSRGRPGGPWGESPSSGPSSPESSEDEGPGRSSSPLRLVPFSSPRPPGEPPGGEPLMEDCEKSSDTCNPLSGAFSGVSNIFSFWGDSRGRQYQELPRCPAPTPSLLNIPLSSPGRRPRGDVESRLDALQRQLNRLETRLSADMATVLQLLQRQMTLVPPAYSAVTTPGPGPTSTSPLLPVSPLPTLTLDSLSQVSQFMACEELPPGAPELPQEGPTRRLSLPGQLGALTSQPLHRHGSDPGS

Row | SMILES | hERG current change (%, negative = inhibition) at 10uM [%]
1 | CCOC(=O)C1(P(=O)(c2ccccc2)c2ccccc2)CCC1 | 0.871
2 | Cc1cccn2c(=O)c(C=O)c(N3CCSCC3)nc12 | -6.43
3 | COc1cc(OC)cc(-c2nnc(SCC(=O)N3CCOCC3)o2)c1 | 9.82
4 | CCS(=O)(=O)N1CCCC(C(=O)NC2CCC(C)CC2)C1 (centres unmarked) | 6.05
5 | CCC(C)C(NS(=O)(=O)c1ccc(C)cc1)C(=O)O (centres unmarked) | 7.19
6 | COC(=O)Cn1c(=O)c(C(=O)CCl)c(N)n(Cc2ccccc2)c1=O | -0.133
7 | CCN(C(=O)COC(=O)CCCOc1ccccc1)c1c(N)n(Cc2ccccc2)c(=O)[nH]c1=O | 15.4
8 | CCOC(=O)c1cnc(Nc2nc3ccccc3o2)nc1CSc1ncccn1 | -6.54
9 | CCn1nnc(NC(=O)c2cccc(-c3cc4ccccc4oc3=O)c2)n1 | -12.8
10 | COc1ccccc1NC(=O)CCn1c(=O)sc2ccccc21 | -13
11 | COCCCNC(=O)C1CCN(S(=O)(=O)N(CC(C)C)CC(C)C)CC1 | 13.4
12 | COc1ccc(N2CCN(Cc3nnc(-c4ccccc4)o3)CC2)cc1 | -0.362
13 | O=C(OCn1ncc(Cl)c(Cl)c1=O)c1ccccc1Cl | -3.88
14 | CCOc1ccc(C(C(=O)NCC2CCCO2)N(C(=O)c2snc(C(N)=O)c2N)c2cccc(F)c2)cc1 (centres unmarked) | 12.5
15 | COC(=O)C1=C(NC(=O)c2ccc(C)c(C)c2)CCS1 | 23.5
16 | CC1(C)SC(=S)N(/N=C/c2cccnc2)C1N(O)C(=O)NC1CCCCC1 (centres unmarked) | 16.1
17 | Cc1cc([N+](=O)[O-])c2c(c1C)C1C=CCC1C(c1ccccn1)N2 (centres unmarked) | 20.4
18 | CCCCN1C(C(=O)Nc2ncccn2)=C(O)c2ccccc2S1(=O)=O | -3.2
19 | CCn1c(CNC(=O)c2ccco2)nnc1SCC(=O)Nc1ccccc1Cl | 7.05

Row | SMILES | hERG current change (%, negative = inhibition) at 10uM [%]
20 | COc1ccc(CCNc2nc(-c3ccccn3)cs2)cc1OC | 11.5
21 | Cc1cc(C)n(-c2ccc(C(=O)Oc3ccc4c(c3)OCO4)cc2)n1 | 4.25
22 | CCOC(=O)c1ccc(-c2ccc(CO)o2)cc1 | -6.44
23 | Cc1noc(/C=C/c2cccs2)c1S(=O)(=O)N1CCC(C(=O)NCCCN2CCCC(C)C2)CC1 (centres unmarked) | -44.5
24 | CC1=NN(C(=O)c2ccccc2Cl)C(O)(c2ccccc2)C1 (centres unmarked) | 14.8
25 | CC(=O)Nc1sc2c(c1C(=O)N1CCOCC1)CCCCC2 | 17.9
26 | COc1ccc(CC(=O)Nc2cccc(S(=O)(=O)N3CCCCCC3)c2)cc1OC | -10.8
27 | COc1ccccc1C(=O)NC(=O)CSc1nncn1C(C)C | -4.53
28 | CCOC(=O)/C(=N\O)C1=NC(C)(C)Cc2ccccc21 | 9.1
29 | Cc1ccc(C(=O)C2CCN(C(=S)NCCCOC(C)C)CC2)cc1 | -27.7
30 | COC(=O)c1cc(COC(=O)c2ccc3ccccc3n2)oc1C | -6.04
31 | COc1ccccc1-n1c(=O)c(C#N)c(-c2ccc([N+](=O)[O-])cc2)c2cc(C(=O)c3cc(F)ccc3O)cnc21 | -4.93
32 | C=CCSc1nc(N2CCOCC2)c2c(c1C#N)CC(C)(C)N(C)C2 | -34.5
33 | CCOC(=O)c1c(NC(=O)COC(=O)c2nccnc2N)sc(C(=O)N(C)C)c1C | -18.8
34 | O=C(OCc1ccc(Cl)cc1Cl)c1ccncc1 | 3.71
35 | O=C(C1CCN(S(=O)(=O)c2cnc[nH]2)CC1)N1CCn2c1nc1ccccc12 | -3.78
36 | COc1ccc(-c2nsc(C(=O)N(c3ccc(F)cc3)C(C(=O)NC3CCCC3)c3ccc(OC)cc3)c2N)cc1 (centres unmarked) | 9.69
37 | CCCN(C(=O)c1cccc(S(=O)(=O)N2CCN(C)CC2)c1)c1c(N)n(Cc2ccccc2)c(=O)[nH]c1=O | 0.795
38 | Cc1cc(C)c(CN2CCC(N3CCC(C(=O)NCC4CCCO4)CC3)CC2)cc1C (centres unmarked) | -24.4

Row | SMILES | hERG current change (%, negative = inhibition) at 10uM [%]
39 | CCOc1cc(/C=N/n2cnnc2)ccc1OS(=O)(=O)c1ccc(C)cc1 | -50.5
40 | O=C(CSc1ccc(F)cc1)Nc1nnc(-c2ccco2)o1 | 1.86
41 | COC(=O)c1cccc(-n2sc3ccccc3c2=O)c1 | 17.3
42 | Cc1nn(C)c(C)c1/C=N/O | 11.6
43 | Cc1ccc(S(=O)(=O)N2CCC(=O)N(C(COCc3cccc(Cl)c3)C(C)C)CC2)cc1 (centres unmarked) | -35.2
44 | O=C(CSC1=Nc2ccccc2C2=NC(CC(=O)NC3CCCCC3)C(=O)N12)NCc1ccco1 (centres unmarked) | -29.9
45 | Cc1ccc(NC(=O)c2c(-c3ccccc3)noc2C)nc1 | 12.2
46 | COc1cc(C2NC(=S)NC(C)=C2C(=O)OC(C)C)ccc1OC(C)C (centres unmarked) | -8.79
47 | COc1ccccc1NC(=O)Nc1ncccc1C | -1.09
48 | Cc1ccc(Cn2c(N3CCN(C)CC3)nc3c2c(=O)[nH]c(=O)n3C)cc1 | -14.9
49 | C/C(=N\NC(=O)c1ccc(F)cc1)c1cccc(NC(=O)c2cccc(F)c2)c1 | 21.3
50 | COc1cc(C(=O)NCCOc2ccccc2C)cc(OC)c1OC | 11.3
51 | Cl.c1ccc(CSC2=NCCCN2)cc1 | 13.9
52 | COc1ccc(CC(=O)NNC(=O)c2cccs2)cc1 | 0.706
53 | COc1ccc(CCNC(=O)COc2ccc(S(=O)(=O)N3CCCC3)cc2)cc1 | -6.68
54 | Cc1cccc(C(=O)N[C@H](C(=O)Nc2nc3ccc(S(C)(=O)=O)cc3s2)C(C)C)c1 | -20.5
55 | O=C(c1ccccc1Cl)N1CCC(N2CCC(C(=O)N3CCCC3)CC2)CC1 | -12.4
56 | O=C(Nc1cccc(C(F)(F)F)c1)/C(=C\c1ccco1)NC(=O)c1cccs1 | -19.2
